Assay results published in the RNAGym collection of RNA variant scans (doi:10.7554/elife.90254).
Read counts are not given, so values of variants with three or more changes are uncertain.

B1: LINE1-mini (parent)
chain: GGCAGAGCUCAACACAGCGUGGCAAAGUGGCUGUGGCUAGACUGCC

Variants of: B1
Assay: self-cleavage, relative activity (ratio to wild type); higher = more cleavage; in vitro, sequencing; the parent is a self-cleaving ribozyme

Variant	self-cleavage
GGCAGAGCUUAAGACUGCGUGGCAAAGUGGCUGUGGCUUGACUGUC [C10U C13G A16U A39U C45U]	0.04
GGCAGAGCUUAAGACAGCGUGGCAACGUAGCUGUGGCUAGACUGCC [C10U C13G A26C G29A]	0.06
GGCAGAGCUUAAGACAGCGUGGCAAAGUGGCUGUGGCUGGACUGCC [C10U C13G A39G]	0.05
GGCAGAGCUUAAGACAGCGUGGCAAAGUGGCUUUGUCUAGACUGCC [C10U C13G G33U G36U]	0.02
GGCAGAGCUUAAGACAGCGUGGCAAAGUGGCUGUAGCUAGACUGCC [C10U C13G G35A]	0.02
GGCAGAGCUUAAUGCAGCGUGGCAAAUUGGCUGUGGCUAGACUGCC [C10U C13U A14G G27U]	0.02
GGCAGAGCUUAAUACGGCGUGGAAAAGUGGCUGUGGCUAAACUGCC [C10U C13U A16G C23A G40A]	0.02
GGCAGAGCUUAAUAUAGCGUGGCAAUGUGGCAGUGGCUAGACCGCC [C10U C13U C15U A26U U32A U43C]	0.02
GGCAGAGCUUAAUACAGCGUGGUAAAGUGGCUGUGGCUAGUCUGCC [C10U C13U C23U A41U]	0.04
GGCAGAGCUUAAUACAGCCUGGCAAAGUGGCUGUGGCUCGACUGCC [C10U C13U G19C A39C]	0.02
GGCAGAGCUUAAUACAGCGUAGCAAAGUGGCUGUGACUCGACUGCC [C10U C13U G21A G36A A39C]	0.39
GGCAGAGCUUAAUACAGCGUCGCUAAGUGACUGUGGCUAGACUGCC [C10U C13U G21C A24U G30A]	0.04
GGCAGAGCUUAAUACAGCGUGACAAAGUGGCUGUGGCUAGACUGCA [C10U C13U G22A C46A]	0.06
GGCAGAGCUUAAUACAGCGUGGCAAAGUGGCUCUGGCUAGACUGCC [C10U C13U G33C]	0.03
GGCAGAGCUUAAUACAGCGGGCCACAGUGGCUGUUGCUAGACUGCC [C10U C13U U20G G22C A25C G35U]	0
GGCAGAGCUUAACAAAGCGUGGCGAAGUGGCCGUGGCUAGACUGCC [C10U C15A A24G U32C]	0.03
GGCAGAGCUUAACAAAGCGUGGCAUAUUCGCUGUGGCUAGACUGCC [C10U C15A A25U G27U G29C]	0.03
GGCAGAGCUUAACAAAGCGUGGUAAAGUGGCUGGGGCUAGACUGCC [C10U C15A C23U U34G]	0.08
GGCAGAGCUUAACAAAGCGUGGCAAAGUGGAUAUGGCUAGACUGCC [C10U C15A C31A G33A]	0.03

Variant	self-cleavage
GGCAGAGCUUAACAAAGCGUCGCAACGUGGCUGUGACUAGACUGCC [C10U C15A G21C A26C G36A]	0.01
GGCAGAGCUUAACAAAGCGUCGCAAAGUGGCUGUGGCUAGCCAGCC [C10U C15A G21C A41C U43A]	0.02
GGCAGAGCUUAACAAAGCGUGGCAAAGUCGCUGUGCCUAGACUGGC [C10U C15A G29C G36C C45G]	0
GGCAGAGCUUAACAAAGCGUGGCAAAGUGGCUGUGACUAGACUGCC [C10U C15A G36A]	0.04
GGCAGAGCUUAACAAAGCGUGGCAAAGUGGCAGUGGCUACAAUGUC [C10U C15A U32A G40C C42A C45U]	0
GGCAGAGCUUAACAAAGCGUGGCAAAGUGGCUGAGGCUAGACUGCC [C10U C15A U34A]	0.03
GGCAGAGCUUAACAGAGCGUGGCAACUUGGCUGUGGCUAGACUGCC [C10U C15G A26C G27U]	0.07
GGCAGAGCUUAACAGAGCGUGGCAAGGUGGCUGUGGUUAGACUGCC [C10U C15G A26G C37U]	0.01
GGCAGAGCUUAACAGAGUGUGGCAAAGUGGGUGUGGCUAGACUGCC [C10U C15G C18U C31G]	0.02
GGCAGAGCUUAACAGAGCGUGGCAAAGUGGCUGUGGUUAGAAUGCC [C10U C15G C37U C42A]	0.01
GGCAGAGCUUAACAGAGCGUGGCAAAGUGGCUGUGGCUAGACUGCA [C10U C15G C46A]	0.02
GGCAGAGCUUAACAGAGCCUGGCAAAGUGGCUGUGUCUAGACUGCC [C10U C15G G19C G36U]	0.03
GGCAGAGCUUAACAGAGCGAGGCAAAGUGGCUGUGGCUAGACUGCC [C10U C15G U20A]	0.02
GGCAGAGCUUAACAUCGCGUGCCAUAGUGGCCGUGGCUAGAUUGCC [C10U C15U A16C G22C A25U U32C C42U]	0.01
GGCAGAGCUUAACAUGGCAUGGCAAAAUGGCUGUGGCUAGAGUGCU [C10U C15U A16G G19A G27A C42G C46U]	0.05
GGCAGAGCUUAACAUAGAGUGGCAAAGUGGCUCUGGCAAGACUGCC [C10U C15U C18A G33C U38A]	0.01
GGCAGAGCUUAACAUAGCGUGGCAAAGUGGCUGUGGCUAGACUGCA [C10U C15U C46A]	0.17
GGCAGAGCUUAACAUAACGUGGCAAAGUGGCUGUGUCAAAACUGCC [C10U C15U G17A G36U U38A G40A]	0.04
GGCAGAGCUUAACAUACCGUGGCAAGGUGGCUGUGGCUAAACUGCC [C10U C15U G17C A26G G40A]	0.01

Variant	self-cleavage
GGCAGAGCUUAACAUAGCUUCUCAAAGUGGCUGUGGCUAGAUUGCC [C10U C15U G19U G21C G22U C42U]	0.08
GGCAGAGCUUAACAUAGCGUGGCAAAGUGUCUGUGGAUAGACUGCC [C10U C15U G30U C37A]	0.05
GGCAGAGCUUAACAUAGCGUGGCAAAGUGGCUGUGACUAGACUGCC [C10U C15U G36A]	0.06
GGCAGAGCUUAACACAGAGUGGCUAAGUGGCUGUGGCUAUACUGCC [C10U C18A A24U G40U]	0.01
GGCAGAGCUUAACACAGAUUGCCAAAGCGGCUGUGGCUAGACUUCC [C10U C18A G19U G22C U28C G44U]	0.03
GGCAGAGCUUAACACAGAGUGGCAAAGUGCCUGUGGCUAGACUGCC [C10U C18A G30C]	0.38
GGCAGAGCUUAACACAGAGUGGCAAAGUGGCUGUGGCUAGACAGCC [C10U C18A U43A]	0.05
GGCAGAGCUUAACACAGGGUGGCAAUGUGGCUGUGGCUAGACUGCA [C10U C18G A26U C46A]	0.07
GGCAGAGCUUAACACAGGCUGGCAAAGUGGCUGUGGCUAGACUGAC [C10U C18G G19C C45A]	0.22
GGCAGAGCUUAACACAGGGGGGCAAAGUGGCUGUGGCUUGACUGCC [C10U C18G U20G A39U]	0.21
GGCAGAGCUUAACACAGUGUGGCUAAUUGGCUGUGGCUAGACUGCC [C10U C18U A24U G27U]	0.16
GGCAGAGCUUAACACAGUGUGGCAAAGUGGCUGUGGCUAGAAUGCC [C10U C18U C42A]	0.04
GGCAGAGCUUAACACAGUCUGGCAAAGUGGCUGUGGCUAGACUGCC [C10U C18U G19C]	0.31
GGCAGAGCUUAACACAGUGUGACAAAGUGGCUGUGGCUAGAAUGCC [C10U C18U G22A C42A]	0.01
GGCAGAGCUUAACACAGUGUGGCAAAGUGCCUGUGGCUAGACUGCC [C10U C18U G30C]	0.92
GGCAGAGCUUAACACAGUGUGGCAAAGUGGCUGUGGCCAGACUGCC [C10U C18U U38C]	0.58
GGCAGAGCUUAACACAGCGUGGAACAGUGGCUAUGGUUAGACUGCC [C10U C23A A25C G33A C37U]	0.03
GGCAGAGCUUAACACAGCGUGGGUAAGUGGCUGUGGCUAGACUGCC [C10U C23G A24U]	0.07
